Paper PMC12820563
The other results are listed elsewhere or left out. The list includes weakly bound sequences.

Target: T1, MBP-FoxP3dN (UniProt Q99JB6)
T1 sequence: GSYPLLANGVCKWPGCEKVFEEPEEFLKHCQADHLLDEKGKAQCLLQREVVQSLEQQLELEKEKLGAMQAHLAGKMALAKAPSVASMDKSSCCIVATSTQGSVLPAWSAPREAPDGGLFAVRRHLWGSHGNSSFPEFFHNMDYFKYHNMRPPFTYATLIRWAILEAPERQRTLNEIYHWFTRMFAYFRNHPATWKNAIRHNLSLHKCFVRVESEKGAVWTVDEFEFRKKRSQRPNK
Experiment: PD-seq (MBP pull-down with sequencing)
Settings: 20 mM Tris-HCl pH 7.5, 100 mM NaCl, 1.5 mM MgCl2, 0.4 uM protein, 0.1 uM dsDNA library, 30 min, room temperature, amylose pull-down; high values mean tight binding; double strand, one strand shown

Q: With “GATGATTGTTCTCCCAGCTGATGAATTACACGCCTCGAGTAAACAAATTTTCCTAATCTTTCTGTTCAAGCGCCATCTAC” as the sequence, how does the binding signal (RPM ratio (pull-down/input)) read?
A: Its binding signal (RPM ratio (pull-down/input)) is 0.758.

Q: For “GATGATTGTTCTCCCAGCTGATGAATTTGCCGAGTCGAGTAAACAAATTTTCCTAATCTTTCTGTTCAAGCGCCATCTAC”, which binding signal (RPM ratio (pull-down/input)) is on record?
A: The binding signal (RPM ratio (pull-down/input)) was 0.293.

Q: “GATGATTGTTCTCCCAGCTGATGAATTCGTACGTTCGAGTAAACAAATTTTCCTAATCTTTCTGTTCAAGCGCCATCTAC” was tested. Which binding signal (RPM ratio (pull-down/input)) did it give?
A: The binding signal (RPM ratio (pull-down/input)) was 0.486.

Q: How did the binding signal (RPM ratio (pull-down/input)) turn out when “GATGATTGTTCTCCCAGCTGATGAATTTTGACGCTCGAGTAAACAAATTTTCCTAATCTTTCTGTTCAAGCGCCATCTAC” was run?
A: Its binding signal (RPM ratio (pull-down/input)) is 0.641.

Q: How did the binding signal (RPM ratio (pull-down/input)) turn out when “GATGATTGTTCTCCCAGCTGATGAATTCCGAACCTCGAGTAAACAAATTTTCCTAATCTTTCTGTTCAAGCGCCATCTAC” was run?
A: Its binding signal (RPM ratio (pull-down/input)) is 0.311.

Q: With “GATGATTGTTCTCCCAGCTGATGAATTTTACTCCTCGAGTAAACAAATTTTCCTAATCTTTCTGTTCAAGCGCCATCTAC” as the sequence, how does the binding signal (RPM ratio (pull-down/input)) read?
A: The binding signal (RPM ratio (pull-down/input)) was 0.333.

Q: How did the binding signal (RPM ratio (pull-down/input)) turn out when “GATGATTGTTCTCCCAGCTGATGAATTCACTGTTTCGAGTAAACAAATTTTCCTAATCTTTCTGTTCAAGCGCCATCTAC” was run?
A: The binding signal (RPM ratio (pull-down/input)) was 0.614.

Q: Which binding signal (RPM ratio (pull-down/input)) does the source give for “GATGATTGTTCTCCCAGCTGATGAATTGATCACTTCGAGTAAACAAATTTTCCTAATCTTTCTGTTCAAGCGCCATCTAC” here?
A: Its binding signal (RPM ratio (pull-down/input)) is 0.776.

Q: For “GATGATTGTTCTCCCAGCTGATGAATTGTGATTATCGAGTAAACAAATTTTCCTAATCTTTCTGTTCAAGCGCCATCTAC”, which binding signal (RPM ratio (pull-down/input)) is on record?
A: The binding signal (RPM ratio (pull-down/input)) was 4.32.

Q: With “GATGATTGTTCTCCCAGCTGATGAATTGAGACTATCGAGTAAACAAATTTTCCTAATCTTTCTGTTCAAGCGCCATCTAC” as the sequence, how does the binding signal (RPM ratio (pull-down/input)) read?
A: The binding signal (RPM ratio (pull-down/input)) was 0.692.

Q: Which binding signal (RPM ratio (pull-down/input)) does the source give for “GATGATTGTTCTCCCAGCTGATGAATTAGGACGATCGAGTAAACAAATTTTCCTAATCTTTCTGTTCAAGCGCCATCTAC” here?
A: The binding signal (RPM ratio (pull-down/input)) was 0.263.

Q: Which binding signal (RPM ratio (pull-down/input)) does the source give for “GATGATTGTTCTCCCAGCTGATGAATTTAGCACGTCGAGTAAACAAATTTTCCTAATCTTTCTGTTCAAGCGCCATCTAC” here?
A: Its binding signal (RPM ratio (pull-down/input)) is 1.51.

Q: For “GATGATTGTTCTCCCAGCTGATGAATTGCTGACCTCGAGTAAACAAATTTTCCTAATCTTTCTGTTCAAGCGCCATCTAC”, which binding signal (RPM ratio (pull-down/input)) is on record?
A: Its binding signal (RPM ratio (pull-down/input)) is 0.592.

Q: Which binding signal (RPM ratio (pull-down/input)) does the source give for “GATGATTGTTCTCCCAGCTGATGAATTCCACTATTCGAGTAAACAAATTTTCCTAATCTTTCTGTTCAAGCGCCATCTAC” here?
A: Its binding signal (RPM ratio (pull-down/input)) is 0.465.

Q: With “GATGATTGTTCTCCCAGCTGATGAATTACGATAATCGAGTAAACAAATTTTCCTAATCTTTCTGTTCAAGCGCCATCTAC” as the sequence, how does the binding signal (RPM ratio (pull-down/input)) read?
A: Its binding signal (RPM ratio (pull-down/input)) is 0.405.

Q: With “GATGATTGTTCTCCCAGCTGATGAATTCGACTGCTCGAGTAAACAAATTTTCCTAATCTTTCTGTTCAAGCGCCATCTAC” as the sequence, how does the binding signal (RPM ratio (pull-down/input)) read?
A: The binding signal (RPM ratio (pull-down/input)) was 0.373.

Q: With “GATGATTGTTCTCCCAGCTGATGAATTGCTTCTATCGAGTAAACAAATTTTCCTAATCTTTCTGTTCAAGCGCCATCTAC” as the sequence, how does the binding signal (RPM ratio (pull-down/input)) read?
A: Its binding signal (RPM ratio (pull-down/input)) is 0.615.

Q: How did the binding signal (RPM ratio (pull-down/input)) turn out when “GATGATTGTTCTCCCAGCTGATGAATTGTACCGCTCGAGTAAACAAATTTTCCTAATCTTTCTGTTCAAGCGCCATCTAC” was run?
A: The binding signal (RPM ratio (pull-down/input)) was 0.403.

Q: For “GATGATTGTTCTCCCAGCTGATGAATTGTCGCGATCGAGTAAACAAATTTTCCTAATCTTTCTGTTCAAGCGCCATCTAC”, which binding signal (RPM ratio (pull-down/input)) is on record?
A: Its binding signal (RPM ratio (pull-down/input)) is 0.66.

Q: With “GATGATTGTTCTCCCAGCTGATGAATTTGACGAATCGAGTAAACAAATTTTCCTAATCTTTCTGTTCAAGCGCCATCTAC” as the sequence, how does the binding signal (RPM ratio (pull-down/input)) read?
A: The binding signal (RPM ratio (pull-down/input)) was 0.208.

Q: Which binding signal (RPM ratio (pull-down/input)) does the source give for “GATGATTGTTCTCCCAGCTGATGAATTATTCCTGTCGAGTAAACAAATTTTCCTAATCTTTCTGTTCAAGCGCCATCTAC” here?
A: Its binding signal (RPM ratio (pull-down/input)) is 0.277.

Q: With “GATGATTGTTCTCCCAGCTGATGAATTAAACATATCGAGTAAACAAATTTTCCTAATCTTTCTGTTCAAGCGCCATCTAC” as the sequence, how does the binding signal (RPM ratio (pull-down/input)) read?
A: The binding signal (RPM ratio (pull-down/input)) was 0.699.

Q: For “GATGATTGTTCTCCCAGCTGATGAATTCTAGCCGTCGAGTAAACAAATTTTCCTAATCTTTCTGTTCAAGCGCCATCTAC”, which binding signal (RPM ratio (pull-down/input)) is on record?
A: The binding signal (RPM ratio (pull-down/input)) was 0.377.

Q: “GATGATTGTTCTCCCAGCTGATGAATTAGCCTATTCGAGTAAACAAATTTTCCTAATCTTTCTGTTCAAGCGCCATCTAC” was tested. Which binding signal (RPM ratio (pull-down/input)) did it give?
A: Its binding signal (RPM ratio (pull-down/input)) is 0.482.

Q: Which binding signal (RPM ratio (pull-down/input)) does the source give for “GATGATTGTTCTCCCAGCTGATGAATTATTACCCTCGAGTAAACAAATTTTCCTAATCTTTCTGTTCAAGCGCCATCTAC” here?
A: The binding signal (RPM ratio (pull-down/input)) was 0.354.

Q: With “GATGATTGTTCTCCCAGCTGATGAATTACGCGGATCGAGTAAACAAATTTTCCTAATCTTTCTGTTCAAGCGCCATCTAC” as the sequence, how does the binding signal (RPM ratio (pull-down/input)) read?
A: Its binding signal (RPM ratio (pull-down/input)) is 0.337.

Q: “GATGATTGTTCTCCCAGCTGATGAATTGAGGGGATCGAGTAAACAAATTTTCCTAATCTTTCTGTTCAAGCGCCATCTAC” was tested. Which binding signal (RPM ratio (pull-down/input)) did it give?
A: The binding signal (RPM ratio (pull-down/input)) was 0.347.

Q: “GATGATTGTTCTCCCAGCTGATGAATTAGGTGTATCGAGTAAACAAATTTTCCTAATCTTTCTGTTCAAGCGCCATCTAC” was tested. Which binding signal (RPM ratio (pull-down/input)) did it give?
A: The binding signal (RPM ratio (pull-down/input)) was 1.91.

Q: For “GATGATTGTTCTCCCAGCTGATGAATTAGTTGATTCGAGTAAACAAATTTTCCTAATCTTTCTGTTCAAGCGCCATCTAC”, which binding signal (RPM ratio (pull-down/input)) is on record?
A: Its binding signal (RPM ratio (pull-down/input)) is 4.37.

Q: “GATGATTGTTCTCCCAGCTGATGAATTATTACAGTCGAGTAAACAAATTTTCCTAATCTTTCTGTTCAAGCGCCATCTAC” was tested. Which binding signal (RPM ratio (pull-down/input)) did it give?
A: The binding signal (RPM ratio (pull-down/input)) was 0.351.

Q: For “GATGATTGTTCTCCCAGCTGATGAATTCGGGTCATCGAGTAAACAAATTTTCCTAATCTTTCTGTTCAAGCGCCATCTAC”, which binding signal (RPM ratio (pull-down/input)) is on record?
A: The binding signal (RPM ratio (pull-down/input)) was 0.619.
